Assay results reported in publication PMC4336329 (PLoS ONE, 2015).
Out of some 310,000 compounds screened, about 14,000 (4.5%) showed an effect of 50% or more. Effects have a minus sign here. The list shows a part of the results.

Molecular target: human ether-à-go-go-related gene (hERG) potassium channel (human, UniProt Q12809)
Assay: primary screen, population patch clamp on CHO cells stably expressing hERG
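Also: peak tail current of the secondary pulse compared with the same well before compound.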

human ether-à-go-go-related gene (hERG) potassium channel, sequence (Q12809 whole entry, looked up): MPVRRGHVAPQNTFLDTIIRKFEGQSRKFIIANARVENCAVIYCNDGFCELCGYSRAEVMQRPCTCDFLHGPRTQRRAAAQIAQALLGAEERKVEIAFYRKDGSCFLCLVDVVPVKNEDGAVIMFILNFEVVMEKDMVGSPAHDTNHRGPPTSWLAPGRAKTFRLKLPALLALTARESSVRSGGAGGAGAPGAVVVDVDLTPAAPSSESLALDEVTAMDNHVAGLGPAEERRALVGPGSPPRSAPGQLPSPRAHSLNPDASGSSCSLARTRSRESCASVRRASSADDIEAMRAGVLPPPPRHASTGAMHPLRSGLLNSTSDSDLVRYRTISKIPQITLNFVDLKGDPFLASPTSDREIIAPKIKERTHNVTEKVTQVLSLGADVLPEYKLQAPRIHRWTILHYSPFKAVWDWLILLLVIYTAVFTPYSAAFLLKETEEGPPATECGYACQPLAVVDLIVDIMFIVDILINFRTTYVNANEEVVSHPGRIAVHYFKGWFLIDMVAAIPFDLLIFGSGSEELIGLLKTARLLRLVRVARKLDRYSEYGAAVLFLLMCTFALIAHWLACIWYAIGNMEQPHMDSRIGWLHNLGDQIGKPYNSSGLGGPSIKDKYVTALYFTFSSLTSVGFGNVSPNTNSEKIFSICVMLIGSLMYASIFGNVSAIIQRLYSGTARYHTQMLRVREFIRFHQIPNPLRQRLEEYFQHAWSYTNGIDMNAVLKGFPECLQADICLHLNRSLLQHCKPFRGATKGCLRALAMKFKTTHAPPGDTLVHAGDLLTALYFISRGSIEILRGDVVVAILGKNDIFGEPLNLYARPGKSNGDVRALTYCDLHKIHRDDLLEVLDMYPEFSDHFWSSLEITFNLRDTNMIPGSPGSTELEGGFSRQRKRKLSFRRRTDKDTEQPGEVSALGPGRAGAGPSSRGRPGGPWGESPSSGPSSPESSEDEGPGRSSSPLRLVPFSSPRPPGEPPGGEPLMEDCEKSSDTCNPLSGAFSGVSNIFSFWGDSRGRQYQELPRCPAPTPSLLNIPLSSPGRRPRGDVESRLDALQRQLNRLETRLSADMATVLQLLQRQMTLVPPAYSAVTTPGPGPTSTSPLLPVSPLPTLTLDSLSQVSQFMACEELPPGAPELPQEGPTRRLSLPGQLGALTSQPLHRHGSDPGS

Structure (SMILES)	hERG current change (%, negative = inhibition) at 10uM [%]
O=C(CSc1ccc(-c2nc3ccccc3[nH]2)cn1)Nc1ccc2c(c1)OCCO2	13.9
CC(=O)c1cccc(NC(=S)N2c3ccccc3CC2C)c1 (centres unmarked)	12.2
C=C1C(C(=O)Nc2ccc(F)cc2)C1C(=O)Nc1ccc(F)cc1 (centres unmarked)	36.8
O=C1NCC2=C1C(c1ccc(Br)cc1)Nc1ccccc1N2 (centres unmarked)	-10.7
O=c1[nH]c2ccccc2nc1/C=C(\O)C(F)F	6.51
CCCCN1C(Nc2ccccc2)=NC[C@@H]1CC(C)C	-34.5
Cc1cc(=O)oc2cc(OC(=O)CCN3C(=O)c4ccccc4C3=O)ccc12	-0.518
O=C(CNC1CC1)Nc1cc(C(F)(F)F)ccc1Cl.O=C(O)C(=O)O	-0.561
COc1ccc(N2C(=O)CC(Sc3nccc(C)n3)C2=O)cc1 (centres unmarked)	-3.04
C/C=C1/CN2[C@@H]3C4CO[C@@H]3c3c([nH]c5cc(OC)ccc35)[C@@H]2CC14 (some centres unmarked)	-0.486
CC1CCC(NC(=O)COC(=O)c2ccc3ncsc3c2)CC1 (centres unmarked)	10.2
Clc1ccc(OCCN2CCOCC2)cc1Cl	-3.13
OCC[n+]1ccc(/C=C/c2c[nH]c3ccccc23)cc1	4.13
CCCc1nc(SCC(=O)Nc2nccs2)c2ccccc2n1	10.4
Cc1sc2ncnc(SCC(=O)NCC3CCCO3)c2c1C (centres unmarked)	1.53
Cc1ccc(NC(=O)CSc2nc(N)cc(N)n2)cc1S(=O)(=O)N1CCOCC1	7.71
CC12CCC(=O)N1C(C(=O)Nc1cccc(S(=O)(=O)N3CCCCCC3)c1)CS2 (centres unmarked)	-69.8
COc1ccc(N(CC(=O)NN=C2CCCCCCC2)S(=O)(=O)c2ccccc2)cc1Cl	4.77
O=C(Nc1ccccc1)Nc1ccc(Cl)c([N+](=O)[O-])c1	-2.27
O=C(c1cccn2c(=O)c3cc4ccccc4cc3nc12)N1CCN(c2ccccc2)CC1	-7.73
COc1cc(OC)c(OC)cc1CNCCc1cccc(F)c1.O=C(O)C(=O)O	-15.2
COc1ccc(NC(=O)CNS(=O)(=O)c2cccs2)c(OC)c1	-5.54

Structure (SMILES)	hERG current change (%, negative = inhibition) at 10uM [%]
COC(=O)CCC(=O)OC1(C)C(=O)C2=CN(C3CC3)C(c3ccc(OC)cc3)=CC2=C(Br)C1=O (centres unmarked)	14.4
O=C1CNCc2[nH]c3ccccc3c2N1c1ccccc1	-3.51
CC(C)[C@H](NC(=O)NCCc1ccc(Cl)cc1)C(=O)O	5.9
O=C(Nc1ccnc(-c2cccnc2)n1)c1ccc(Cl)c(Cl)c1	-11.5
Cc1cc(Cl)ccc1OCc1n[nH]c(=S)n1C1CCCCC1	21.1
Cc1noc(C)c1S(=O)(=O)N(CC(=O)NC(C)c1ccccc1)c1ccc(C(C)C)cc1 (centres unmarked)	14.5
CCOC(=O)CCSc1n[nH]c(=S)s1	18.1
O=C(Nc1ccccc1F)c1ccc(CSc2ncccn2)cc1	13.5
COc1ccc(N/C=C/C(=O)c2ccc(Oc3ncccn3)cc2)cc1	3.16
Cc1occc1C(=O)Nc1cc(C(C)(C)C)on1	-25
O=C(N=C1SC2CS(=O)(=O)CC2N1c1ccc(Br)cc1)C1CCCO1 (centres unmarked)	4
Cc1cc(C)c(NC(=O)CSc2nnc(Cc3cccn3C)n2-c2ccc(F)cc2)c(C)c1	-20.2
O=C(O)C1CCN(S(=O)(=O)Cc2ccccc2)CC1	11.4
CCOc1ccc(S(=O)(=O)NCCSCc2ccco2)cc1	-20.4
CC(=O)c1cccc(NC=C2C(=O)OC3(CCCCC3)OC2=O)c1	-37.9
Cc1cccc(NC(=S)NCCc2ccc(Cl)cc2)c1C	14.2
O=C(Cn1ncc2c3ccccc3n(Cc3ccccc3)c2c1=O)NCCN1CCOCC1	-57
CC(=O)N1CCC(N(CCCOC(C)C)C(=O)Nc2ccc(C)c(C)c2)CC1	-15.8
COc1ccc(C(=O)Nc2ccccc2[N+](=O)[O-])cc1S(=O)(=O)N1CCOCC1	5.04
Cc1cc2cc(CCNC(=O)c3ccc(Br)o3)c(=O)[nH]c2cc1C	-38.5
COc1cccc(NC(=O)NCCCN2CCN(c3ccc(F)cc3)CC2)c1	-73.2
Cc1ccc(C)c(OCC(=O)Nc2ccccc2C(=O)N2CCOCC2)c1	3.32
